PubChem BioAssay (NCATS)
Some of the results follow. Further columns of the screen follow, without active or inactive calls. The list favours compounds with an active or inconclusive main result.

assay: qHTS Assay for Lipid Storage Modulators (AID 1519); details: Drosophila S3 cells, BODIPY lipid droplet/cell ratio, laser cytometry; measured here: lipid channel max response; cells loaded with oleic acid
Summary of the method: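 Cells seeded at 5,000 per well were treated with compounds over a concentration series and loaded with oleic acid (400 uM, as added). Lipid droplet fluorescence (488 nm excitation, 500-530 nm channel) was read by laser-scanning cytometry and normalized to 20 uM Triacsin C.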

Row | SMILES | max response [%]
1 | Cc1cccc(-c2cc(=O)c3cc(C)ccc3o2)c1 | 115
2 | Cc1csc(-c2nc3ccccc3n2C)n1 | 148
3 | COc1ccc(-c2cc(=O)c3ccccc3o2)cc1 | 45.1
4 | N#Cc1cccc(-c2ccc3ncnc(NC4CCNCC4)c3c2)c1 | 42.3
5 | FC(F)(F)c1ccccc1-c1cncnc1NCc1cccnc1 | 47.3
6 | COc1cccc(-c2nc(NC3CC3)c3ccccc3n2)c1 | 14.3
7 | COC1(C2=NCCN2)COc2ccccc2O1 (stereo not given) | -3.46
8 | CCNc1ncc2nc(-c3ccccc3)c(=O)n(CCc3ccccc3)c2n1 | 31.1
9 | COc1ccc(CNc2nc(-c3cccc(NS(C)(=O)=O)c3)nc3ccccc23)c(OC)c1 | 30.7
10 | Cc1cccc(CNc2ccnc(-c3ccccc3Cl)n2)c1 | 27.2
11 | COc1ccc(CNc2ncncc2-c2cccc(C#N)c2)c(OC)c1 | 35.6
12 | COc1ccc(Oc2ncc3nc(-c4cc(F)cc(F)c4)c(=O)n(C4CC4)c3n2)cc1 | -4.55
13 | c1cncc(-c2nc(-n3ccnc3)c3ccccc3n2)c1 | 32.3
14 | c1nc(NC2CC2)c2cc(-c3ccoc3)ccc2n1 | 46.5
15 | CNc1nc(-c2c(C)noc2C)nc2ccccc12 | -7.21
16 | N#CCCn1c(=O)c(CCc2ccccc2)nc2cnc(OCc3ccccc3)nc21 | 33.3
17 | COc1ccc(Oc2ncc3nc(-c4ccc(F)cc4)c(=O)n(C4CC4)c3n2)cc1 | 19
18 | C[C@@H](CCc1ccc(O)cc1)NCCc1ccc(O)c(O)c1 | 32.9
19 | C=CCN1CCc2cc(O)c(O)cc2[C@H](c2ccccc2)C1 | 58.3
20 | CN(C)c1ncc2nc(-c3ccc(Cl)cc3)c(=O)n(C)c2n1 | 28.4
